According to US20180312565A1 (Affibody, published 2018):
Numbering of substitutions follows the chain as printed.

B1: Z18027-ABD (designed binder)
chain: AQHDEALEVDAKYAKERNNAAYEILYLPNLTSAQKWAFIWKLDDDPSQSSELLSEAKKLNDSQAPKVDYVLAEAKVLANRELDKYGVSDYYKNLINNAKTVEGVKALIDEILAALPYVPG
notes: domain: GA3
B2: Z18036-ABD (designed binder)
chain: B1 chain with N19Q, S32N, A33K
notes: domain: GA3
B3: Z18037-ABD (designed binder)
chain: B1 chain with N19E, S32N, A33E
notes: domain: GA3
B4: Z18038-ABD (designed binder)
chain: B1 chain with N19T, S32N
notes: domain: GA3
B5: Z18039-ABD (designed binder)
chain: B1 chain with N19E, S32Q, A33S, K35I
notes: domain: GA3
B6: Z18048-ABD (designed binder)
chain: B1 chain with N19S, S32N
notes: domain: GA3
B7: Z18052-ABD (designed binder)
chain: B1 chain with N19I, S32Q, A33S, K35I
notes: domain: GA3
B8: Z18054-ABD (designed binder)
chain: B1 chain with N19D, Y22F, S32Q, K35I
notes: domain: GA3
B9: Z18060-ABD (designed binder)
chain: B1 chain with N19S, S32K, A33Q
notes: domain: GA3
B10: Z18064-ABD (designed binder)
chain: B1 chain with N19K, S32N
notes: domain: GA3
B11: Z18065-ABD (designed binder)
chain: B1 chain with N19K, S32Q
notes: domain: GA3
B12: Z18066-ABD (designed binder)
chain: B1 chain with N19E, S32N, A33S
notes: domain: GA3
B13: Z18069-ABD (designed binder)
chain: B1 chain with N19E, S32A, A33S, K35R
notes: domain: GA3
B14: Z18070-ABD (designed binder)
chain: B1 chain with N19A, S32N, A33H
notes: domain: GA3
B15: Z18074-ABD (designed binder)
chain: B1 chain with N19Q, Y22F, S32N
notes: domain: GA3
B16: Z18078-ABD (designed binder)
chain: B1 chain with N19T, Y22Q, A33G
notes: domain: GA3
B17: Z18090-ABD (designed binder)
chain: B1 chain with N19D, S32N, A33Q, D43A
notes: domain: GA3
B18: Z18092-ABD (designed binder)
chain: B1 chain with N19I, Y26W, S32N
notes: domain: GA3
B19: Z18095-ABD (designed binder)
chain: B1 chain with N19A, Y22F, S32Q, A33S
notes: domain: GA3
B20: Z18096-ABD (designed binder)
chain: B1 chain with N19E, A33S
notes: domain: GA3
B21: Z18099-ABD (designed binder)
chain: B1 chain with N19E, Y22H, S32Q, A33K, K35I
notes: domain: GA3
B22: Z18101-ABD (designed binder)
chain: B1 chain with N19S, S32N, A33L
notes: domain: GA3
B23: Z18104-ABD (designed binder)
chain: B1 chain with N19F, S32N, A33S
notes: domain: GA3
B24: Z18106-ABD (designed binder)
chain: B1 chain with N19A, Y22F, K35V
notes: domain: GA3
B25: Z18108-ABD (designed binder)
chain: B1 chain with N19D, S32K, A33Q
notes: domain: GA3
B26: Z18110-ABD (designed binder)
chain: B1 chain with N19K, S32Q, A33Q, K35I
notes: domain: GA3
B27: Z18111-ABD (designed binder)
chain: B1 chain with N19H, S32Q, A33Q
notes: domain: GA3
B28: Z18115-ABD (designed binder)
chain: B1 chain with N19F, S32N
notes: domain: GA3
B29: Z18116-ABD (designed binder)
chain: B1 chain with N19A, S32Q
notes: domain: GA3
B30: Z18117-ABD (designed binder)
chain: B1 chain with N19K, Y22F, S32Q, A33E
notes: domain: GA3
B31: Z18118-ABD (designed binder)
chain: B1 chain with N19A, S32A, A33G
notes: domain: GA3
B32: Z18119-ABD (designed binder)
chain: B1 chain with N19Q, S32N, A33S, K35I
notes: domain: GA3
B33: Z18124-ABD (designed binder)
chain: B1 chain with N19D, Y26Q, S32N, A33Q, K35H
notes: domain: GA3
B34: Z18128-ABD (designed binder)
chain: B1 chain with N19S, S32N, A33Q, K35R
notes: domain: GA3
B35: Z18129-ABD (designed binder)
chain: B1 chain with N19S, S32Q
notes: domain: GA3
B36: Z18130-ABD (designed binder)
chain: B1 chain with N19S, Y22Q, S32N, A33R
notes: domain: GA3
B37: Z18131-ABD (designed binder)
chain: B1 chain with N19E, S32A
notes: domain: GA3
B38: Z18133-ABD (designed binder)
chain: B1 chain with N19Q, S32Q, A33K
notes: domain: GA3
B39: Z18135-ABD (designed binder)
chain: B1 chain with N19T, S32K, A33S, K35Q
notes: domain: GA3
B40: Z18137-ABD (designed binder)
chain: B1 chain with N19S, A33Q
notes: domain: GA3
B41: Z18138-ABD (designed binder)
chain: B1 chain with N19I, S32Q, A33N
notes: domain: GA3
B42: Z18140-ABD (designed binder)
chain: B1 chain with N19I, Y22Q, S32N
notes: domain: GA3
B43: Z18143-ABD (designed binder)
chain: B1 chain with N19D, S32N, A33S
notes: domain: GA3
B44: Z18144-ABD (designed binder)
chain: B1 chain with N19H, Y22F, S32N
notes: domain: GA3
B45: Z18148-ABD (designed binder)
chain: B1 chain with N19E, S32Q, A33K
notes: domain: GA3
B46: Z18149-ABD (designed binder)
chain: B1 chain with S32Q
notes: domain: GA3
B47: Z18150-ABD (designed binder)
chain: B1 chain with N19Q, Y22F, S32N, A33S
notes: domain: GA3
B48: Z18152-ABD (designed binder)
chain: B1 chain with N19V, S32Q, A33N
notes: domain: GA3
B49: Z18153-ABD (designed binder)
chain: B1 chain with N19I, S32N, A33Q
notes: domain: GA3
B50: Z18156-ABD (designed binder)
chain: B1 chain with N19F, S32Q, A33R
notes: domain: GA3
B51: Z18158-ABD (designed binder)
chain: B1 chain with N19R, S32H, A33S
notes: domain: GA3
B52: Z18164-ABD (designed binder)
chain: B1 chain with N19T, S32Q, A33E
notes: domain: GA3
B53: Z18167-ABD (designed binder)
chain: B1 chain with N19E, S32N, A33N
notes: domain: GA3
B54: Z18172-ABD (designed binder)
chain: B1 chain with N19S, Y22F, S32N
notes: domain: GA3
B55: Z18174-ABD (designed binder)
chain: B1 chain with N19Q, S32Q, A33R
notes: domain: GA3
B56: Z18176-ABD (designed binder)
chain: B1 chain with N19D, S32A, A33S, K35R
notes: domain: GA3
B57: Z18179-ABD (designed binder)
chain: B1 chain with N19L, Y22Q, S32Q, A33K, K35R
notes: domain: GA3
B58: Z18185-ABD (designed binder)
chain: B1 chain with N19E, Y22Q, S32Q, A33K, K35I
notes: domain: GA3
B59: Z18220-ABD (designed binder)
chain: B1 chain with N19E, A33K
notes: domain: GA3
B60: Z18228-ABD (designed binder)
chain: B1 chain with N19K, Y22Q, S32Q, A33N, K35I
notes: domain: GA3
B61: Z18233-ABD (designed binder)
chain: B1 chain with N19T, Y22Q, S32Q, A33G
notes: domain: GA3
B62: Z18240-ABD (designed binder)
chain: B1 chain with N19Q, S32Q
notes: domain: GA3

Molecular target: T1, human PD-L1 Fc Chimera (R&D Systems, cat. no. 156-B7-100) (human, UniProt Q9NZQ7 19-239, biotinylated with Sulfo-NHS-LC-Biotin in ELISA and AlphaLISA; not biotinylated in SPR)
T1 construct: bought; also called hPD-L1; biotinylated hPD-L1; not shown: Fc part of the bought Fc chimera, not described
Assay: ELISA titration, captured Z-ABD

T1 sequence (Q9NZQ7 19-239, change not shown): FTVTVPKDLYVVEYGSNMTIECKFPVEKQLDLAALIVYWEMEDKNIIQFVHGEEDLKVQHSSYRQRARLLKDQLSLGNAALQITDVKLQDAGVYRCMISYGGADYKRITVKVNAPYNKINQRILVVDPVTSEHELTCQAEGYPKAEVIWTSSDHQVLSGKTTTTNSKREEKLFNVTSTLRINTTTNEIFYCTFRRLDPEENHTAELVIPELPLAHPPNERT

Binder	EC50
B1	0.08 nM
B2	0.076 nM
B3	0.077 nM
B4	0.069 nM
B5	0.069 nM
B6	0.065 nM
B7	0.071 nM
B8	0.062 nM
B9	0.083 nM
B10	0.068 nM
B11	0.071 nM
B12	0.073 nM
B13	0.078 nM
B14	0.076 nM
B15	0.07 nM
B16	0.078 nM
B17	0.088 nM
B18	0.077 nM
B19	0.073 nM
B20	0.08 nM
B21	0.087 nM

Binder	EC50
B22	0.067 nM
B23	0.075 nM
B24	0.083 nM
B25	0.078 nM
B26	0.081 nM
B27	0.078 nM
B28	0.077 nM
B29	0.074 nM
B30	0.081 nM
B31	0.079 nM
B32	0.1 nM
B33	0.084 nM
B34	0.077 nM
B35	0.062 nM
B36	0.074 nM
B37	0.087 nM
B38	0.077 nM
B39	0.085 nM
B40	0.074 nM
B41	0.074 nM
B42	0.087 nM

Binder	EC50
B43	0.078 nM
B44	0.079 nM
B45	0.07 nM
B46	0.069 nM
B47	0.076 nM
B48	0.08 nM
B49	0.08 nM
B50	0.08 nM
B51	0.087 nM
B52	0.076 nM
B53	0.084 nM
B54	0.076 nM
B55	0.084 nM
B56	0.089 nM
B57	0.087 nM
B58	0.081 nM
B59	0.084 nM
B60	0.088 nM
B61	0.086 nM
B62	0.078 nM
